Test results as given in PubChem BioAssay AID886 (National Center for Advancing Translational Sciences (NCATS), 2007).
The whole screen tested about 73,000 compounds, of which about 2,500 (3.4%) were called active. This list was built around the results that the source calls inconclusive (neither active nor inactive); the mix of calls is not that of the screen. Calls come from the whole dose curve; as a rule, active = well fitted inhibition curve with a large enough effect; inconclusive = small, poorly fitted or top-dose-only effect; inactive = no such curve, though single readings can be large or run the other way. A potency beside an inconclusive call is a rough fit, not a confirmed value.
% is set by controls: 0 for no effect and ±100 for the full control effect; potency is the fitted concentration of half-maximal effect; tags give direction and shape of the fitted curve.
Note: nearly all actives have a fitted effect of over 60% in size.

The compounds below were run against 3-hydroxyacyl-CoA dehydrogenase type-2 (Homo sapiens) (UniProt Q99714) (assay: qHTS Assay for Inhibitors of HADH2 (Hydroxyacyl-Coenzyme A Dehydrogenase, Type II)). Settings: recombinant HADH2, NADH fluorescence, beta-hydroxybutyryl-CoA; activity change, negative = inhibition: at 57.1 µM (top of the series).
Chain of UniProt Q99714 (Q99714 whole entry, looked up): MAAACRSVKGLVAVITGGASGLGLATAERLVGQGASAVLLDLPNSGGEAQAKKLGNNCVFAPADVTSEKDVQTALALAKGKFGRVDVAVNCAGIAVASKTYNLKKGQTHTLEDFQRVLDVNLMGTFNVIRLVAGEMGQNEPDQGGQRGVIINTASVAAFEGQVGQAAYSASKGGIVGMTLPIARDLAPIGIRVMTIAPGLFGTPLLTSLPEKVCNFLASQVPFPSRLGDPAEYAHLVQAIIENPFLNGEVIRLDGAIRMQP
Chain of UniProt Q99714 (Q99714 whole entry, looked up): as above
Summary of the method: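 Buffer 100 mM Tris-HCl pH 9.0/0.01% Tween-20; HADH2 20 nM; NAD+ 1 mM; beta-hydroxybutyryl-CoA 90 uM (all final). 15 min cpd preincubation, RT.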
`Brc1ccc(-c2cn3cccnc3n2)cc1` was tested, and the Potency was active: 3.98 µM. `O=C1CC(N2CCN(c3ccc(O)cc3)CC2)C(=O)N1Cc1cccs1` (stereo not given) was tested, and the Potency was inconclusive: 31.6 µM [inhibitor, partial curve, poor fit]. `CC(C)(C)N1C(=O)[C@H]2[C@@H]3[C@H](O)[C@H](O)CC(=O)[C@H]3CC[C@H]2C1=O` was tested, and the Potency was inconclusive: 1.26 µM [inhibitor, single point]. With `CC(=O)OC[C@H]1O[C@@H](ON=C(C)C)[C@H](OC(C)=O)[C@@H](OC(C)=O)[C@H]1OC(C)=O` the Potency was inconclusive: 1 µM [inhibitor, single point]. In the case of `O=P(O)(O)O[C@@H]1O[C@H](CO)[C@@H](O)[C@H](O)[C@@H]1O`, the activity change, negative = inhibition is reported as inactive: 8.03% [at 11.4 µM]. `CC(=O)Nc1nonc1-c1nc2ccccc2n1CC1CC1` was tested, and the Potency was inconclusive: 39.8 µM [inhibitor, single point]. For `CCN1CCCC1CN=Cc1c(O)n(-c2ccccc2)c(=O)c2ccccc12` (stereo not given), the Potency was inconclusive: 6.31 µM [inhibitor, single point]. `Cc1noc(C)c1-c1cncnc1-n1ccnc1` was tested, and the “activity change, negative = inhibition” value was inactive: -5.07%. For `Cc1nc2cncnc2n(Cc2ccc(F)cc2)c1=O`, the “activity change, negative = inhibition” value was inactive: -0.266%. In the case of `COC(=O)c1ccc(C(=O)OC)c(N)c1`, the Potency is reported as inconclusive: 31.6 µM [inhibitor, single point]. With `COc1ccccc1CC(=O)NCCc1ccc(S(N)(=O)=O)cc1` the Potency was inconclusive: 31.6 µM [inhibitor, single point]. For `CCc1c(C)sc(NC(=O)OC)c1C(=O)N1CCOCC1`, the Potency was inconclusive: 25.1 µM [inhibitor, single point]. In the case of `O=c1c2ccccc2nc2n1CCC2`, the Potency is reported as inconclusive: 31.6 µM [inhibitor, single point]. For `c1ccc(-c2cc3c(nn2)CCc2nonc2-3)cc1`, the Potency was inconclusive: 7.94 µM [inhibitor, single point]. `CCOC(=O)c1c(C)n(CC(O)c2ccccc2)c2ccc(O)cc12` (stereo not given) was tested, and the Potency was inconclusive: 25.1 µM [inhibitor, partial curve]. In the case of `CCC(C)n1nccc1NC(=O)C(C)OC(=O)c1cc2ccccc2[nH]1` (stereo not given), the Potency is reported as inconclusive: 39.8 µM [inhibitor, single point]. With `COC(=O)c1c(-c2ccc(C)cc2)csc1N` the Potency was inconclusive: 10 µM [inhibitor, partial curve]. With `CN(C)CCn1nnnc1SCC1=C(C(=O)O)N2C(=O)[C@@H](NC(=O)Cc3csc(N)n3)[C@@H]2SC1` the Potency was active: 12.6 µM. In the case of `COc1ccc(OC)c2c(=S)c3ccccc3[nH]c12`, the Potency is reported as inconclusive: 0.251 µM [inhibitor, full curve]. In the case of `O=C(Cc1c(O)c2ccccc2[nH]c1=O)NCc1ccccc1F`, the Potency is reported as inconclusive: 39.8 µM [inhibitor, single point]. With `Cc1ccc(CN2CCSc3ccc(C(=O)N4CCN(c5ncccn5)CC4)cc32)cc1` the Potency was inconclusive: 31.6 µM [inhibitor, single point]. With `O=C(O)C1Nc2c(O)cccc2C2C=CCC12` (stereo not given) the Potency was active: 12.6 µM. In the case of `C/C(CCC(=O)OC[C@@H]1O[C@H](C#Cc2ccccc2)C=C[C@@H]1Oc1ccc(C)cc1)=N/O[C@@H](C)c1cc(-c2c(C)cc(C)cc2C)no1`, the activity change, negative = inhibition is reported as inactive: 2.9% [at 11.4 µM]. In the case of `CCC(OC(=O)CCc1nc2ccccc2[nH]c1=O)C(=O)c1ccccc1` (stereo not given), the “activity change, negative = inhibition” value is reported as inactive: 10%. In the case of `CN=C1N[C@H](c2ccccc2)N(c2ccccc2)S1`, the Potency is reported as inconclusive: 12.6 µM [inhibitor, single point]. For `COc1ccc(OCC(=O)Nc2ccc3c(c2)nc2n3CCSC2)cc1`, the Potency was inconclusive: 39.8 µM [inhibitor, single point]. In the case of `O=S(=O)(Cc1ccccc1)NCC1CCCO1` (stereo not given), the “activity change, negative = inhibition” value is reported as inactive: -8.35%. In the case of `O=C1CCC[C@@H](C(C(=O)OCc2ccccc2)C(=O)OCc2ccccc2)C1`, the activity change, negative = inhibition is reported as inactive: -12.5% [at 11.4 µM]. In the case of `O=C(Cn1cccc1)N1CCN(c2ccc(F)cc2)CC1`, the “activity change, negative = inhibition” value is reported as inactive: -7.37%. In the case of `Cc1cc(=O)[nH]c(SCc2nc3ncccn3c2Br)n1`, the Potency is reported as inconclusive: 39.8 µM [inhibitor, single point]. In the case of `Cc1ccc(C(=O)Nc2nnc(-c3cccs3)s2)cc1C`, the Potency is reported as inconclusive: 31.6 µM [inhibitor, single point]. For `CC1Cc2nc(SCC(=O)OCc3ccccc3)n(C)c(=O)c2S1` (stereo not given), the Potency was inconclusive: 15.8 µM [inhibitor, partial curve]. With `N#Cc1cc2c(=O)n3ccccc3nc2n(Cc2cccnc2)c1=O` the Potency was active: 3.16 µM. In the case of `Cc1noc(C)c1-c1nccc(NC2CC2)n1`, the “activity change, negative = inhibition” value is reported as inactive: -25.9%. With `CCOC(=O)CSC1=C(C#N)C(c2ccc(F)cc2)C(C(C)=O)=C(C)N1` (stereo not given) the Potency was inconclusive: 25.1 µM [inhibitor, single point]. In the case of `O=CNc1ncn[nH]1`, the activity change, negative = inhibition is reported as inactive: -1.12% [at 11.4 µM]. For `Cc1cc(-c2nc3ncccc3o2)ccc1N`, the Potency was inconclusive: 7.94 µM [inhibitor, single point]. `c1ccc(OCCn2c(-c3ccco3)nc3ccccc32)cc1` was tested, and the Potency was inconclusive: 12.6 µM [inhibitor, partial curve]. In the case of `COc1ccc(-c2ocnc2C(=O)Nc2ccccc2N2CCCCC2)cc1`, the Potency is reported as inconclusive: 31.6 µM [inhibitor, single point]. With `CCOC(=O)c1cc2c(n(-c3ccccc3)c1=O)CC(C)(C)CC2=O` the “activity change, negative = inhibition” value was inactive: -24.3%. For `c1ccc(Cc2nn3c(Cn4nnc5ccccc54)nnc3s2)cc1`, the Potency was active: 3.16 µM. With `CCCN(CCC)C(=O)[C@@H](CCC(=O)O)NC(=O)c1ccccc1` the Potency was inconclusive: 2 µM [inhibitor, partial curve, poor fit]. In the case of `Cc1cc(NC(=O)CSc2ccc(-c3nc4cc(C)c(C)cc4[nH]3)cn2)no1`, the Potency is reported as inconclusive: 39.8 µM [inhibitor, single point]. For `FC(F)(F)c1ccc(N2CCOCC2)c(Nc2nc3ccccc3n3cnnc23)c1`, the Potency was inconclusive: 39.8 µM [inhibitor, single point]. For `O=C1Nc2cc(Cl)cnc2N2CCCC12` (stereo not given), the Potency was inconclusive: 31.6 µM [inhibitor, single point]. In the case of `N#Cc1cc2c(=O)n3ccccc3nc2n(CCN2CCOCC2)c1=O`, the Potency is reported as active: 12.6 µM. For `CCOC(=O)COc1cc(=O)n(CC)c2ccccc12`, the “activity change, negative = inhibition” value was inactive: 9.54%. In the case of `COc1ccc(C2c3sc(=O)[nH]c3SC3C(=O)N(c4ccccc4)C(=O)C32)cc1` (stereo not given), the Potency is reported as inconclusive: 3.16 µM [inhibitor, full curve]. `Cn1c(SCC(=O)c2ccccc2F)nnc1C1CC1` was tested, and the Potency was inconclusive: 31.6 µM [inhibitor, single point]. For `COc1ccc(NC(=O)NCCN2CCc3ccccc3C2)cc1`, the Potency was inconclusive: 25.1 µM [inhibitor, single point]. `N#CCCN(C(=O)CSc1ccc2c(c1)OCCO2)c1ccccc1` was tested, and the Potency was inconclusive: 25.1 µM [inhibitor, partial curve]. `Cc1cccc(NC(=O)CN2C(=O)COc3ccc(Cl)cc32)c1` was tested, and the “activity change, negative = inhibition” value was inactive: 14.3%. `Cc1[nH]nc2nc3c(c(OC(=O)c4ccccc4)c12)c(=O)n(C)c(=O)n3C` was tested, and the “activity change, negative = inhibition” value was inactive: 11.4%. `OC1(c2ccc(F)cc2)CCN(Cc2nnnn2Cc2cccs2)CC1` was tested, and the “activity change, negative = inhibition” value was inactive: -1.72%. With `CCOC(=O)c1c(C2COc3ccccc3O2)csc1N` (stereo not given) the Potency was inconclusive: 25.1 µM [inhibitor, partial curve]. For `Cc1cc(C)c2c(=O)n(CC(=O)NCCCN3CCOCC3)sc2n1`, the Potency was active: 0.158 µM. For `O=C(NC1CCCCC1)N(CCN1CCOCC1)Cc1cc2cc3c(cc2[nH]c1=O)OCCO3`, the Potency was inconclusive: 31.6 µM [inhibitor, single point]. In the case of `O=C(Nc1nc2c(ccc3ccccc32)s1)c1ccco1`, the Potency is reported as inconclusive: 15.8 µM [inhibitor, partial curve]. `CCC(Sc1ccc2nnc(-c3ccc(OC)c(OC)c3)n2n1)C(=O)O` (stereo not given) was tested, and the Potency was inconclusive: 31.6 µM [inhibitor, single point]. `NC(=NCc1ccccc1)NC(=O)c1nc(Cl)c(N)nc1N` was tested, and the Potency was active: 31.6 µM. With `O=C(Nc1nnc(SCC(=O)N2CCCCC2)s1)C1CCCCC1` the Potency was inconclusive: 3.98 µM [inhibitor, full curve]. `O=C1CC(c2cccc(Cl)c2)Cc2nc(N3CCN(c4ccccc4)CC3)ncc21` (stereo not given) was tested, and the Potency was inconclusive: 7.94 µM [inhibitor, single point]. In the case of `CCCc1cc(C(=O)Nc2sc(C)c(CC)c2C#N)no1`, the Potency is reported as inconclusive: 12.6 µM [inhibitor, partial curve]. In the case of `Cc1c2c(nc3ccccc13)OCC2`, the “activity change, negative = inhibition” value is reported as inactive: 0.0446%. In the case of `c1ccc(-c2noc(C34CC5CC(CC(C5)C3)C4)n2)nc1`, the “activity change, negative = inhibition” value is reported as inactive: 8.23%. `O=C(Nc1ccncc1)C1COc2ccccc2O1` (stereo not given) was tested, and the “activity change, negative = inhibition” value was inactive: 0.745%. `CCN(Cc1cc(Cl)cc(C)c1O)Cc1c(O)ccc2ccccc12` was tested, and the activity change, negative = inhibition was inactive: -14.8% [at 11.4 µM]. `O=C(COc1ccccc1O)c1cccs1` was tested, and the “activity change, negative = inhibition” value was inactive: -23.9%. For `COCCOc1ccc(C(F)(F)F)cc1Nc1nc2ccccc2o1`, the Potency was inconclusive: 39.8 µM [inhibitor, single point]. For `CCCCc1cc(=O)oc2cc(C)cc(OCc3nn[nH]n3)c12`, the Potency was active: 25.1 µM. `c1ccc(-c2oc3ncnc(NCCN4CCOCC4)c3c2-c2ccccc2)cc1` was tested, and the Potency was inconclusive: 39.8 µM [inhibitor, single point]. For `O=C1CC(c2ccco2)CC2=C1C(c1ccccc1)n1nc(C(F)(F)F)nc1N2` (stereo not given), the Potency was inconclusive: 31.6 µM [inhibitor, single point]. `CN1C(=O)C2(Nc3ccccc3-c3nc4ccccc4n32)c2ccccc21` (stereo not given) was tested, and the “activity change, negative = inhibition” value was inactive: 5.14%. With `CCN(CC)C(=O)c1sc2nc(-c3ccccn3)[nH]c(=O)c2c1C` the Potency was active: 31.6 µM. In the case of `C=C1C(=O)O[C@@H]2[C@@H]1CC/C(C)=C\CC[C@@]1(C)O[C@H]21`, the Potency is reported as “inactive”.
